Test results from PubChem BioAssay AID1347073 (National Center for Advancing Translational Sciences (NCATS), 2019).
In all, about 45,000 compounds went through this assay and about 200 (0.44%) were called active. Inconclusive results (about 7%) are left out. Calls follow the shape of the dose curve; as a rule, active = well fitted activation curve with a large enough effect; inconclusive = small, poorly fitted or top-dose-only effect; inactive = no such curve, though single readings can be large or run the other way. This is one part of the list.

assay: qHTS of TDP-43 Inhibitors: NCGC Sytravon Library Screen; settings: yeast TDP-43 toxicity rescue, BacTiter-Glo growth, 24 h; series mostly up to 46.1 µM; growth rescue (activation): at the top concentration; also: 0% is about no effect; nearly all actives have a fitted effect of over 55% in size
Summary of the method: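 TDP-43-expressing yeast, pregrown in raffinose, seeded at OD600 0.02 in galactose medium with compound for 24 hr at 30 deg C. Growth read by BacTiter-Glo luminescence, so rescue of toxicity appears as activation.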

Row | SMILES | growth rescue (activation)
1 | C/C(=N\NC(=O)CNC(=O)c1ccccc1Br)c1ccco1 | inactive: 15.7%
2 | CC(=O)N1CCC(N(CCN2CCOCC2)C(=S)Nc2c(C)cccc2C)CC1 | inactive: 22%
3 | Cc1ncc(CN2CCN(C(C)C)C(CCO)C2)s1 (centres undefined) | inactive: 4.16%
4 | CC(=O)OCC(=O)Nc1ccc(SC(F)F)cc1 | inactive: 4.64%
5 | CC(C)CC1(C)NC(=O)N(Cc2cc([N+](=O)[O-])cc3c2OCOC3)C1=O (centres undefined) | inactive: 14.5%
6 | CNC(=O)C1=C(C)NC(=S)NC1c1cccs1 (centres undefined) | inactive: 5.69%
7 | O=C(c1cccs1)N1CCC2(O)CCCCC2C1c1ccc(F)cc1 (centres undefined) | inactive: 11.8%
8 | CC(C)(O)C#Cc1ccc(C(=O)NCc2ccccc2F)cc1 | inactive: -11.4%
9 | O=C(NC1CCN(C(=S)NCCc2ccccc2)CC1)C1CC1 | inactive: 5.4%
10 | Cn1nnnc1SCC(=O)Nc1ccc(C(=O)N2CCN(Cc3ccccc3F)CC2)cc1 | inactive: 15.7%
11 | Cc1c(CCOC(=O)c2ccc(N3CCOCC3)c([N+](=O)[O-])c2)sc[n+]1CC#N | inactive: 9.95%
12 | Cc1cc(Cl)ccc1NC(=S)N1CCOCC1 | inactive: -5.34%
13 | CC(C)N(Cc1ccccc1)C(=O)COC(=O)C1CCCCC1 | inactive: 26.6%
14 | O=C(O)C1CCCCC1C(=O)Nc1ccc2c(c1)OCO2 (centres undefined) | inactive: 8.07%
15 | CCOC(=O)c1ccc(NC(=S)Nc2ccc3[nH]c(=O)[nH]c3c2)cc1 | inactive: 31.4%
16 | N#Cc1ccccc1S(=O)(=O)N1CCN(C(=O)C2CCCC2)CC1 | inactive: 3.84%
17 | Cc1ccc(NC(=O)Cn2c(=O)cnc3ccccc32)cc1S(=O)(=O)N(C)C | inactive: 12.3%
18 | COc1ccc(OC)c(S(=O)(=O)N2Cc3ccccc3CC2C(=O)Nc2ccc(C)cc2C)c1 (centres undefined) | inactive: 25.3%
19 | CC(C)C(=O)N1CCCC1(C)C(=O)Nc1ccc(F)cc1 (centres undefined) | inactive: -7%
20 | COc1cc(NC(=O)CN2CCCCC2)c(C)cc1[N+](=O)[O-] | inactive: -0.833%
21 | CN(Cc1ccccc1)C(=S)NC(=O)c1ccccc1 | inactive: -7.13%
22 | CN(CC(=O)Nc1ccc(N2CCOCC2)cc1)C(=O)c1ccc(CS(C)(=O)=O)cc1 | inactive: -33.3%

Row | SMILES | growth rescue (activation)
23 | O=c1cccccc1NN=C1CCCCC1 | inactive: -11.5%
24 | CCC(=O)Nc1ccc(C(=O)c2ccccc2)cc1 | inactive: 17.4%
25 | CCOc1ccc(N(Cc2ccccc2)C(=O)c2nc(SCC)ncc2Cl)cc1 | inactive: -8.17%
26 | CC(=O)Nc1cccc(-c2ccnc3c2CC(C)(C(=O)Nc2cccc(OC(F)(F)F)c2)O3)c1 (centres undefined) | inactive: 15.6%
27 | COC(=O)c1ccccc1NC(=S)NC(=O)COc1ccc(C(C)C)cc1 | inactive: -6.43%
28 | Cc1ccccc1C(=O)NC(=S)NCCN1CCOCC1 | inactive: 12.4%
29 | Cc1ccc(N2C(=S)SC3CS(=O)(=O)CC32)cc1 (centres undefined) | inactive: 5.11%
30 | COc1cc(/C=C/c2cccc[n+]2C)ccc1OCC(=O)Nc1ccccc1C | inactive: -0.124%
31 | CN1CCC(=NNC(=O)C(=O)Nc2ccccc2F)CC1 | inactive: -8.15%
32 | COc1ccc(CC(N)c2csc(NC(=O)c3ccc(F)cc3)n2)cc1 (centres undefined) | inactive: 9.67%
33 | Cc1cc(C)nc(N/N=C/c2c(C)oc3ccccc23)n1 | inactive: 13.5%
34 | O=C(CCNc1ccc(Cl)cc1)c1cccs1 | inactive: 7.53%
35 | CCNS(=O)(=O)c1ccc(C(=O)OCc2cc(=O)oc3cc(OC)ccc23)cc1 | inactive: 1.84%
36 | Cc1ccc(C(=O)N2CCCC2)cc1S(=O)(=O)Nc1cccc(C)c1C | inactive: -1.92%
37 | c1coc(-c2ccnc(-n3cccc3)n2)c1 | inactive: 5.84%
38 | COc1ccc(OC)c(S(=O)(=O)N2CCCC(C(=O)N3CCC(C(N)=O)CC3)C2)c1 (centres undefined) | inactive: 24.6%
39 | COc1ccc(OC2C(=O)N(c3cc(C)ccc3C)C2c2ccc(OC)c(OC)c2)cc1 (centres undefined) | inactive: 27.9%
40 | Oc1nc(-c2ccc(Cl)cc2)n2ccncc12 | inactive: -2.25%
41 | Cc1nc2ccc(N=NC3=C(O)CC(C)(C)CC3=O)cc2s1 | inactive: 18.3%
42 | Cc1ccc(N2CC(C(=O)N3CCOCC3)CC2=O)cc1Cl (centres undefined) | inactive: 0.531%
43 | O=C(Nc1ccc(Cl)cc1)c1ccc2sc([C@@H]3O[C@H](CO)[C@H](O)[C@H](O)[C@H]3O)nc2c1 | inactive: 9.09%
44 | Cc1csc(NC(=O)c2ccc(C)o2)n1 | inactive: 11.8%

Row | SMILES | growth rescue (activation)
45 | C[C@@H](C(=O)Nc1ccc(SC(F)F)cc1)N1C(=O)C2CCCCC2C1=O (some centres undefined) | inactive: 4.92%
46 | CNC(=O)c1oc(-c2ccccc2)nc1C | inactive: 8.14%
47 | CCOC(=O)Cn1c(C)[n+](CC(=O)c2ccccc2)c2ccccc21 | inactive: -7.46%
48 | CCOC(=O)C1CCN(C(=O)C2CCCN2S(=O)(=O)c2ccc(Cl)cc2)CC1 (centres undefined) | inactive: -3.82%
49 | N#C/C(=C\c1ccccc1Cl)C(=O)Nc1ccccn1 | inactive: 7.55%
50 | COCCNC(=O)CN(C(=O)c1ccc(N2CCCC2)nc1)c1ccc(F)c(Cl)c1 | inactive: 14.6%
51 | C[C@H](NC(=O)CCCn1nnc2ccccc2c1=O)C(=O)O | inactive: -2.79%
52 | COc1ccc(-c2nnc(-c3ccc(C)cc3)o2)cc1 | inactive: 20.3%
53 | COc1ccccc1OCc1nnc(-c2ccccc2)o1 | inactive: 14.7%
54 | COc1cccc(/C=N/NC(=O)C[n+]2ccccc2)c1OC | inactive: -3.07%
55 | COC(=O)c1sc(N/N=C/c2ccc(C(C)C)cc2)nc1C | inactive: 10.4%
56 | O=C(O)Cc1ccc(NC(=O)c2cnccn2)cc1 | inactive: 8.01%
57 | CCCc1nnc(SCC(=O)NC2CC2)n1CC | inactive: 3.79%
58 | O=C(O)C1C2CCC(O2)C1C(=O)NCc1ccccc1Br (centres undefined) | inactive: -0.981%
59 | Cc1cc(C)cc(N(CCC#N)C(=O)CSc2nc3ccccc3c(=O)[nH]2)c1 | inactive: -4.84%
60 | COc1cccc(/C=N/NC(=S)Nc2cccnc2)c1 | inactive: 34%
61 | N=c1c(S(=O)(=O)c2ccccc2)cc2c(=O)n3ccccc3nc2n1CCCN1CCOCC1 | inactive: 15.5%
62 | N#CCCN(NC1=NS(=O)(=O)c2ccccc21)C(=O)c1ccccc1Br | inactive: -17.2%
63 | Cc1[nH]c2ccccc2c1/C=N/NC(=O)c1cccc(S(=O)(=O)Nc2ccccc2Cl)c1 | inactive: 2.09%
64 | COc1ccc(C(=O)OCC(=O)NCc2ccc3c(c2)OCO3)cc1[N+](=O)[O-] | inactive: 22%
65 | CCn1c(CC(=O)Nc2ccccc2OC)nnc1SCC(=O)Nc1ccccc1F | inactive: 9.18%
66 | C=CCc1c(C)nc(-c2ccccc2)nc1Nc1ccccc1O | inactive: 20.8%

Row | SMILES | growth rescue (activation)
67 | Cc1cc(C)nc(N/N=C/c2cccc([N+](=O)[O-])c2)n1 | inactive: 21%
68 | O=C(Cc1cnc2ncnn2c1)N1CCc2c([nH]c3ccccc23)C1c1ccccc1F (centres undefined) | inactive: 7.91%
69 | COc1ccccc1C(=O)NCC(=O)OCC(=O)NNC(=O)c1ccc(Br)cc1 | inactive: -1.33%
70 | COc1ccc(CCn2c(-c3ccc(Cl)cc3)n[nH]c2=S)cc1OC | inactive: 11.9%
71 | CCCCN(CC)CCCNC(=O)CN1C(=O)CSc2ccc(S(=O)(=O)N3CCOCC3)cc21 | inactive: 8.65%
72 | Cn1c(=O)[nH]c(=O)c2c1nc(Sc1nc3ccccc3s1)n2Cc1ccccc1 | inactive: 16.5%
73 | CC(C)C(=O)OC1CCS(=O)(=O)c2sccc21 (centres undefined) | inactive: 9.27%
74 | Cc1cccc(-n2c(C)c(C)c3c(N)ncnc32)c1 | inactive: 3.8%
75 | Cc1cc(C)nc(N2CCN(C(=O)CCC(=O)Nc3nnc(CC(C)C)s3)CC2)n1 | inactive: 2.96%
76 | Cc1ccc(C(=O)Nc2ccc3ncccc3c2)cc1 | inactive: -21.9%
77 | CC1CCCCC12NC(=O)N(CC(=O)OCc1ccccc1Cl)C2=O (centres undefined) | inactive: 12.3%
78 | C=CCNC(=S)Nc1ccc2cn[nH]c2c1 | inactive: 23.3%
79 | Cn1ncc(Br)c1C(=O)NC1CCCCC1 | inactive: 5.1%
80 | O=C(COC(=O)COc1ccccc1)Nc1ccc(Br)cc1Br | inactive: 17.1%
81 | OC[C@@H]1CN(Cc2ccc(Cl)cc2)C[C@H](n2cnc3c(NCc4ccco4)ncnc32)O1 | inactive: -2.55%
82 | CCC(C)(C)C1CCc2nc3ccccc3c(C(=O)OC(C)C(=O)Nc3c(C)n(C)n(-c4ccccc4)c3=O)c2C1 (centres undefined) | inactive: 12.6%
83 | CCN(CC)S(=O)(=O)c1ccc(O)c(NS(=O)(=O)c2ccccc2F)c1 | inactive: 2.35%
84 | O=C(O)CCCn1cc(NC(=O)c2ccco2)cn1 | inactive: -11.4%
85 | CC(=O)c1ccc(NC(=S)NNC(=O)c2ccncc2)cc1 | inactive: 10.9%
86 | COc1cc(NC(=O)C2CC(c3c(F)cccc3Cl)=NO2)cc(OC)c1OC (centres undefined) | inactive: 18.2%
87 | O=C(CNc1ccc(F)cc1)N/N=C/C1CC=CCC1 (centres undefined) | inactive: 8.41%
88 | CN(C)C(=O)c1cn(-c2ccccc2)nc1-c1cc2ccccc2o1 | inactive: 22.7%

Row | SMILES | growth rescue (activation)
89 | COc1ccc(CCNC(=O)Cn2cnc3ccccc3c2=O)cc1OC | inactive: -14.6%
90 | Cn1c(=O)c2c(ncn2CC(=O)OCC(=O)Nc2ccc(F)cc2Cl)n(C)c1=O | inactive: 5.4%
91 | CC[C@H](C)[C@H](NC(N)=O)C(=O)OCC(=O)NCc1ccc(Cl)cc1 | inactive: -7.13%
92 | Cc1cc(C)c(S(=O)(=O)/N=C2\C=C(Nc3ccc(C(=O)O)cc3)C(=O)c3ccccc32)c(C)c1 | inactive: 5.38%
93 | COc1ccc(CNC(=O)Cc2ccc(-c3ccccc3)cc2)cc1OC | inactive: 22.6%
94 | Cc1cc(NC(=O)COC(=O)C2CC(=O)N(c3cccc(Cl)c3)C2)no1 (centres undefined) | inactive: 11.4%
95 | [N-]=C=C1C(=S)NC(=O)[C@H]([n+]2ccccc2)[C@H]1c1ccc(Cl)cc1 | inactive: -0.902%
96 | CCCNC(=O)C1(C)CCN(C(=O)c2cc(C(C)(C)C)nn2C)C1 (centres undefined) | inactive: -14.9%
97 | O=C(c1cccs1)N1CCC(c2nc3c(nnn3Cc3ccccc3Cl)c(=O)[nH]2)CC1 | inactive: 16.9%
98 | O=C(NCC1CCCCC1)c1ccc2nc([C@@H]3O[C@H](CO)[C@H](O)[C@H](O)[C@H]3O)[nH]c2c1 | inactive: 2.97%
99 | CCOc1ccc(C(C(=O)NCC2CCCO2)N(Cc2ccccc2)C(=O)c2snc(C(N)=O)c2N)cc1 (centres undefined) | inactive: -3.85%
100 | Cc1csc(NC(=O)c2ccc(S(=O)(=O)N3CCN(C)CC3)cc2)n1 | inactive: -7.08%
101 | CCOC(=O)Cn1nnnc1CN1CCN(c2ccc(OC)cc2)CC1 | inactive: 1.45%
102 | C=CCn1c(SCC(=O)NCCOC)nnc1-c1cc2c(s1)CCC(CC)C2 (centres undefined) | inactive: 6.25%
103 | COc1cccc2c1O/C(=N\O)C(C(=O)Nc1cccc(C)c1C)C2 (centres undefined) | inactive: 15.8%
104 | O=C(NC1CCCC1)C1CCCN1C(=O)Nc1ccccc1Cl (centres undefined) | inactive: 10.1%
105 | NC(=O)c1nsc(C(=O)N(CC(=O)NC2CCCC2)c2cccc(C(F)(F)F)c2)c1N | inactive: -5.9%
106 | CCOC(=O)C1C(=O)NC(c2ccccc2)=NC1c1cccc(Br)c1 (centres undefined) | inactive: -7.08%
107 | O=C(CCCn1cc([N+](=O)[O-])cn1)Nc1ccc2c(c1)OCO2 | inactive: -0.429%
108 | Cc1cc(NC(=O)c2ccccc2[N+](=O)[O-])ccc1Br | inactive: 10.5%
109 | COC(=O)c1ccc(C)c(NC(=O)c2ccc(Cl)c([N+](=O)[O-])c2)c1 | inactive: 20.6%
